# From PubChem BioAssay AID1508624 (National Center for Advancing Translational Sciences (NCATS), 2021)
# Screen size: about 48,000 compounds; about 120 (0.25%) were called active. About 4% were inconclusive and are not listed. Calls follow the shape of the dose curve; as a rule, active = well fitted activation curve with a large enough effect; inconclusive = small, poorly fitted or top-dose-only effect, or another doubt; inactive = no such curve, though single readings can be large or run the other way. Some of the results follow.
# Experiment: Primary qHTS for Identification of Small Molecule Activators of Huntingtin-Antisense Promoter Activity; also: nearly all actives have a fitted effect of over 55% in size
# Settings: HEK293 HTT-AS promoter firefly luciferase reporter, 24 h; at 57.5 µM (top of the series) unless noted
# Summary of the method: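 HEK293 luciferase promoter-reporter cells (2,500/well) plated 24 h, then compounds added at up to 57.5 uM final for 24 h at 37 °C. Firefly luminescence by Dual-Glo, normalized to vehicle (0%) and zero RLU (-100%).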
row,Structure (SMILES),"activity change, positive = activation"
1,Cc1cccc(-n2c(/C=C/c3c[nH]c4ccccc34)nc3ccccc3c2=O)c1,inactive: -40.3%
2,CSc1ccc(CN2CCN(C(=O)COc3cccc(C)c3)CC2)cc1,inactive: -36.3%
3,O=C1c2ccccc2C(=O)C1C(=O)C(c1ccccc1)c1ccccc1,"inactive: -2.79% [at 57.5 µM, percent change from vehicle, -100% = no light]"
4,COc1ccc(-c2nc(CN3C(=O)CN=C(c4ccccc4)c4ccccc43)c(C)o2)cc1,inactive: -12.3%
5,C[N+]1(CCF)[C@@H]2CC[C@H]1CC(OC(=O)C(O)(c1ccccc1)c1ccccc1)C2 (stereo partly drawn),inactive: -4.26%
6,Nc1ccncc1,inactive: 1.08%
7,NC1(c2ccccc2)CCCCC1,inactive: -25.8% [at 116 µM]
8,CO/C=C(/C(=O)OC)c1ccccc1Oc1cc(Oc2ccccc2C#N)ncn1,inactive: -47% [at 116 µM]
9,Cc1c(C(=O)Nc2cccc(C(F)(F)F)c2)cc(-c2ccccc2)n1CCCN1CCOCC1,inactive: -17.3%
10,Cc1ncc2n1-c1ccc(Cl)cc1C(c1ccccc1F)=NC2,inactive: -16.1%
11,O=C(O)c1cc(Oc2ccc(C(F)(F)F)cc2Cl)ccc1[N+](=O)[O-],"inactive: -7.46% [at 57.5 µM, percent change from vehicle, -100% = no light]"
12,CSc1ccc(/C=C/c2nc3ccccc3c(=O)n2-c2cccc(Cl)c2C)cc1,"inactive: -2.15% [at 57.5 µM, percent change from vehicle, -100% = no light]"
13,Cc1cc(OCC(=O)N2CCN(CCc3ccncc3)CC2)ccc1Cl,inactive: -24.5%
14,CC(C)=CC1C(C(=O)OCc2cccc(Oc3ccccc3)c2)C1(C)C (stereo not drawn),inactive: 0.95%
15,Cc1ccc(NC(=O)N(Cc2ccc3c(c2)OCO3)C2CCN(Cc3ccccc3)CC2)cc1C,inactive: -22.3%
16,Nc1ccc(Sc2ccc(N)cc2)cc1,inactive: 7.83% [at 116 µM]
17,Cc1nnc2n1-c1sc(CCc3ccc(CC(C)C)cc3)cc1C(c1ccccc1Cl)=NC2C (stereo not drawn),inactive: -33%
18,COc1ccc(-n2c(/C=C\c3ccccc3F)nc3ccccc3c2=O)c(OC)c1,inactive: -17%
19,N#Cc1cc2c(nc1SCC(=O)Nc1ccc(C(F)(F)F)cc1)C1CCN2CC1,inactive: -43.1%
20,CCOC(=O)NC(C)(C)Cc1ccc(Cl)cc1,inactive: -2.5%
21,CCN[C@@H](C)Cc1cccc(C(F)(F)F)c1,inactive: -8.87%
22,CNC(=O)NC(O)C(Cl)(Cl)Cl (stereo not drawn),inactive: -9.07%
23,CCC(=O)OC1(c2ccccc2)CCN(C)CC1,inactive: 20.9% [at 116 µM]
